Test results from the supplement of paper PMC10037445.
Whole data set: some 2,900 compounds, median “NF-kB SEAP reporter activity, fold change vs agonist alone” near 0.99, cut for the highest 2% near 2.6. The list shows a part of the results.

Columns and labels:
[1] = system: RAW-Dual; assay: NF-kB SEAP reporter activity, fold change vs agonist alone; higher = enhanced NF-kB activity; conditions: library stock concentration (final ~1000-fold dilution): 10 mM
In short: (§1)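 After 50 nL of library stock was delivered by pin tool to RAW-Dual macrophages (50,000 cells/well, DMEM, 384-well plates), a PRR agonist was added 1 h later and the plates were kept at 37 °C, 5% CO2. Twenty hours later, IRF was read from supernatant by QuantiLuc luminescence and NF-κB by QuantiBlue absorbance at 620 nm. Reporter activity is stated as fold change over agonist-alone wells. Wells with IncuCyte confluency under 70% of agonist controls in both mask sets were counted as cytotoxic.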

[2] = system: RAW-Dual; assay: NF-kB SEAP reporter activity, fold change vs agonist alone; cytotoxicity flag (confluency mask): not cytotoxic; higher = enhanced NF-kB activity
In short: as §1

[3] = system: RAW-Dual; assay: NF-kB SEAP reporter activity, fold change vs agonist alone; cytotoxicity flag (confluency mask): cytotoxic (confluency <70% of control); higher = enhanced NF-kB activity
In short: as §1

[4] = cytotoxicity flag (confluency mask): not cytotoxic, agonist: Imiquimod (TLR7) […]
[5] = cytotoxicity flag (confluency mask): not cytotoxic, agonist: MPLA (TLR4) […]
[6] = agonist: ODN 1826 (TLR9) 0.5 ug/mL
[7] = agonist: Pam2CSK4 (TLR2/6) 0.1 ug/mL
[8] = agonist: Pam3CSK4 (TLR2/1) 0.1 ug/mL

COc1ccc(C2Sc3ccccc3N(CCN(C)C)C(=O)C2OC(C)=O)cc1.Cl (stereo not given)
NF-kB SEAP reporter activity [1, 4]: 1.17 | NF-kB SEAP reporter activity [1, 5]: 0.987

COc1ccc(C2Sc3ccccc3N(CCN(C)C)C(=O)C2OC(C)=O)cc1.Cl (stereo not given) (library stock concentration (final ~1000-fold dilution): 10 mM)
NF-kB SEAP reporter activity ([2]; agonist: LPS (TLR4) 0.1 ug/mL): 1.26 | NF-kB SEAP reporter activity [2, 6]: 0.845 | NF-kB SEAP reporter activity [2, 7]: 1.01 | NF-kB SEAP reporter activity [2, 8]: 1.14

Nc1nc(Cl)nc2c1ncn2C1OC(CO)C(O)C1F (stereo not given) (library stock concentration (final ~1000-fold dilution): 10 mM)
NF-kB SEAP reporter activity ([3]; agonist: LPS (TLR4) 0.1 ug/mL): 1.78 | NF-kB SEAP reporter activity [3, 6]: 2.41 | NF-kB SEAP reporter activity [3, 7]: 1.53 | NF-kB SEAP reporter activity [3, 8]: 1.59

Nc1nc(Cl)nc2c1ncn2C1OC(CO)C(O)C1F (stereo not given)
NF-kB SEAP reporter activity ([1]; cytotoxicity flag (confluency mask): cytotoxic (confluency <70% of control), agonist: Imiquimod (TLR7) […]): 2.06 | NF-kB SEAP reporter activity ([1]; cytotoxicity flag (confluency mask): cytotoxic (confluency <70% of control), agonist: MPLA (TLR4) […]): 1.74

CC(C)CC(NC(=O)C(CCc1ccccc1)NC(=O)CN1CCOCC1)C(=O)NC(Cc1ccccc1)C(=O)NC(CC(C)C)C(=O)C1(C)CO1 (stereo not given)
NF-kB SEAP reporter activity [1, 4]: 2.33 | NF-kB SEAP reporter activity [1, 5]: 0.832

CC(C)CC(NC(=O)C(CCc1ccccc1)NC(=O)CN1CCOCC1)C(=O)NC(Cc1ccccc1)C(=O)NC(CC(C)C)C(=O)C1(C)CO1 (stereo not given) (library stock concentration (final ~1000-fold dilution): 10 mM)
NF-kB SEAP reporter activity ([2]; agonist: LPS (TLR4) 0.1 ug/mL): 0.318 | NF-kB SEAP reporter activity [2, 6]: 1.18 | NF-kB SEAP reporter activity [2, 7]: 0.683 | NF-kB SEAP reporter activity [2, 8]: 0.456

CC(c1cc2ccccc2s1)N(O)C(N)=O (stereo not given) (library stock concentration (final ~1000-fold dilution): 10 mM)
NF-kB SEAP reporter activity ([2]; agonist: LPS (TLR4) 0.1 ug/mL): 1.23 | NF-kB SEAP reporter activity [2, 6]: 1.01 | NF-kB SEAP reporter activity [2, 7]: 0.914 | NF-kB SEAP reporter activity [2, 8]: 0.933

CC(c1cc2ccccc2s1)N(O)C(N)=O (stereo not given)
NF-kB SEAP reporter activity [1, 4]: 0.908 | NF-kB SEAP reporter activity [1, 5]: 0.826

O=C(/C=C/c1ccc(O)c(O)c1/C=C/c1ccc(O)c(O)c1)OC(Cc1ccc(O)c(O)c1)C(=O)O (stereo not given) (library stock concentration (final ~1000-fold dilution): 10 mM)
NF-kB SEAP reporter activity ([2]; agonist: LPS (TLR4) 0.1 ug/mL): 1.09 | NF-kB SEAP reporter activity [2, 6]: 0.836 | NF-kB SEAP reporter activity [2, 7]: 0.837 | NF-kB SEAP reporter activity [2, 8]: 0.289

O=C(/C=C/c1ccc(O)c(O)c1/C=C/c1ccc(O)c(O)c1)OC(Cc1ccc(O)c(O)c1)C(=O)O (stereo not given)
NF-kB SEAP reporter activity [1, 4]: 0.405 | NF-kB SEAP reporter activity [1, 5]: 0.891

CC1=C(C(=O)OC2CCCCC2)C(c2ccc([N+](=O)[O-])cc2)C2=C(CC(C)(C)CC2=O)N1 (stereo not given) (library stock concentration (final ~1000-fold dilution): 10 mM)
NF-kB SEAP reporter activity ([2]; agonist: LPS (TLR4) 0.1 ug/mL): 0.672 | NF-kB SEAP reporter activity [2, 6]: 0.674 | NF-kB SEAP reporter activity [2, 7]: 0.298 | NF-kB SEAP reporter activity [2, 8]: 0.335

CC1=C(C(=O)OC2CCCCC2)C(c2ccc([N+](=O)[O-])cc2)C2=C(CC(C)(C)CC2=O)N1 (stereo not given)
NF-kB SEAP reporter activity [1, 4]: 1.19 | NF-kB SEAP reporter activity [1, 5]: 0.918

CC=CCC(C)C(O)C1C(=O)NC(CC)C(=O)N(C)CC(=O)N(C)C(CC(C)C)C(=O)NC(C(C)C)C(=O)N(C)C(CC(C)C)C(=O)NC(C)C(=O)NC(C)C(=O)N(C)C(CC(C)C)C(=O)N(C)C(CC(C)C)C(=O)N(C)C(C(C)C)C(=O)N1C (stereo not given) (library stock concentration (final ~1000-fold dilution): 10 mM)
NF-kB SEAP reporter activity ([2]; agonist: LPS (TLR4) 0.1 ug/mL): 1.87 | NF-kB SEAP reporter activity [2, 6]: 1.27 | NF-kB SEAP reporter activity [2, 7]: 0.462 | NF-kB SEAP reporter activity [2, 8]: 0.948
